# Source: patent publication US20170204445A1, “IN VIVO SITE-SPECIFIC PROTEIN TAGGING USING ENGINEERED SORTASE VARIANTS” (priority 2016, published 2017)
# B1: Trx-5f7: thioredoxin-fused nanobody 5f7 conjugated to Azp in vivo and labeled on-column with Cy3-DBCO; HER2-binding imaging agent (conjugate)
# VHH: [… about 100 residues …]GSGSGHMHHHHHHSSGLVPRGSGMKETAAAKFERQHMDSPDLGTDDDDKSGMEVQLVESGGGLVQAGGSLRLSCAASGITFSINTMGWYRQAPGKQRELVALIISIGDTYYADSVKGRFTISRDNAKNTVYLQMNSLKPEDTAVYYCKRFRTAAQGTDYWGQGTQVTVSSHHHHHHLPETGG
# Biological target: HER2 on SK-BR-3 cells (Homo sapiens, UniProt P04626)
# Test: Flow cytometry analysis of labeled nanobody binding
# Conditions: SK-BR-3 breast cancer cells, 100 nM labeled probe, blocked with unlabeled Trx-5f7
molecule,measurement,value
B1,detection of HER2 expression,effective in detecting HER2 expression
